Test results reported in PubChem BioAssay AID1508623 (National Center for Advancing Translational Sciences (NCATS), 2021).
About 450 (0.94%) of roughly 48,000 compounds were called active. Another 19% or so got no clear call; they are omitted. The call rests on the fitted dose curve; in most records, active means well fitted inhibition curve with a large enough effect; inconclusive means small, poorly fitted or top-dose-only effect; inactive means no such curve, though single readings can be large or run the other way. The list shows a part of the results.

test: Primary qHTS for Identification of Small Molecule Inhibitors of Huntingtin Promoter Activity; settings: HEK293 HTT promoter firefly luciferase reporter (activity 0% = vehicle and -100% = no light), 24 h; series mostly up to 57.5 µM; activity change, negative = inhibition: at the top concentration; further: nearly all actives have a fitted effect of over 50% in size
How it was run: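 Luminescence was read after Dual-Glo reagent and a 10 min room-temperature incubation. Values were normalized to vehicle (0% activity) and zero RLU (-100% activity). Reporter HEK293 cells had been exposed to compounds (up to 57.5 uM final) for 24 h.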

Activity change, negative = inhibition, inactive:
CCc1ccc(NC(=O)CN2C(=O)c3ccccc3Sc3ccc(C(=O)N4CCCC4)cc32)cc1 -16.6%, Cc1nc(-c2ccc(S(=O)(=O)Nc3ccc(Cl)c(C(F)(F)F)c3)cc2)co1 -19.5%, COc1ccc(CNC(=O)C(CC(C)C)N2Cc3ccccc3C2=O)cc1 (stereo unspecified) -11.8%, Cc1ccc2nc(COc3cccc(NC(=O)c4ccccc4Cl)c3)cc(=O)n2c1 4.8%, CCOc1ccccc1CNC(=O)c1cnc2sc(N(CC)CC)nn2c1=O 1.17%, CC(C)CN(CCNC(=O)c1cc(-c2cccs2)nc2ccccc12)CC(C)C -2.07%, CC(=O)N1CCc2nc3sc(C(=O)Nc4ccc(Cl)cc4F)c(N)c3c(C(F)(F)F)c2C1 0.129%, CC(Oc1ccccc1)C(=O)Nc1nnc2n1CCS2 (stereo unspecified) -18.5%, COC(=O)c1cccc(-n2c(CCC(=O)O)ccc2-c2cccs2)c1 7.86%, COc1ccc(C(=O)Nc2ccc(-c3nnc4n3CCCCC4)cc2)cc1OC -8.28%, COc1ccc(Cn2c(C(=O)O)c(CNCc3ccc(C)o3)c3ccc(C)cc32)cc1 -19.6%, O=C(c1cc2ccc3cccnc3c2[nH]1)N1CCN(c2ccccc2)CC1 21.1%, CC(C)c1nc2ccc(C(=O)NC(C)c3ccccc3)cc2o1 (stereo unspecified) 10%, O=C(NC1CCCC1)c1ccc(CSc2nc3cccnc3n2Cc2ccc(F)cc2)cc1 -3.17%, CCOC(=O)c1ccc2ncc3c(-c4ccccc4)nn(-c4ccc(F)c(Cl)c4)c3c2c1 -6.86%, CCc1ccccc1N1CC(c2nc3ccccc3n2CCCCOc2ccccc2)CC1=O (stereo unspecified) 2.05%, Oc1ccccc1-c1nc(/C=C/c2ccc(F)cc2)nn1-c1ccccc1 6.16%, COc1cccc(/C=C/C(=O)Nc2ccc3nc(N4CCN(C)CC4)cc(C)c3c2)c1OC -23%, CCOc1ccc(NC(=O)CSc2ncc3c(n2)-c2ccccc2N(Cc2ccccc2C)S3(=O)=O)cc1 -11.2%, COc1ccc(CCNC(=O)CS(=O)Cc2nc(-c3ccccc3F)oc2C)cc1OC (stereo unspecified) -11.4%, Cc1cc(C(=O)NCc2ccccc2Cl)c2c(C)nn(-c3ccccc3)c2n1 -0.858%, CCN(CC)CCNC(=O)c1ccc2c(=O)n3nc(Nc4ccccc4OC)sc3nc2c1 -10.3%, O=S1(=O)c2ccccc2N(Cc2cccc(Cl)c2)c2ccccc21 -25.4%, COc1cccc(CNC(=O)C2CCN(c3nnc(-n4c(C)ccc4C)s3)CC2)c1OC 1.48%, CC(=O)c1cc2c(cc1N/C(=N/S(=O)(=O)c1ccc(C)cc1)c1ccc(F)cc1)OCO2 -23.7%, Cc1c(C(=O)N2CCN(c3ccccc3)CC2)sc2nc3n(c(=O)c12)CCC3 -10.3%, CC(C)CCNC(=O)CN1C(=O)CSc2ccc(S(=O)(=O)N3CCCCC3)cc21 -14.4%, CCc1ccc(S(=O)(=O)c2nnn3c2nc(NC(C)C)c2sccc23)cc1 1.65%, COc1ccc(CCNC(=O)c2ccc3c(c2)ncn3-c2ccc(C)cc2C)cc1OC -28.4%, Cc1ccc(NC(=O)c2ccc(-n3c(C)nnc3C)cc2)cc1F -18.3%, CCOC(=O)c1c(-c2ccc(C)cc2)csc1NC(=O)c1nc(SC(C)C)ncc1Cl -5.78%, CCc1ccccc1NC(=O)C1CCCN(C(=O)c2cnn(-c3ccccc3)c2-n2cccc2)C1 (stereo unspecified) -27.9%, CCCc1nc(SCc2cc(=O)c3ccc(C)c(C)c3[nH]2)n[nH]1 -0.748%, CCC(C(=O)NCCc1ccccc1)n1nc(C)n2c(cc3sccc32)c1=O (stereo unspecified) -16.4%, COc1ccc(S(=O)(=O)N2CCN(Cc3nc4ccc(C)cc4o3)CC2)cc1Cl 0%, CCOc1ccccc1NC(=O)c1c(NC(=O)c2cccc(C)c2)sc2c1CCC2 0.996%, Cc1ccc(-c2cc(C(F)(F)F)n3nc(C(=O)NCC45CC6CC(CC(C6)C4)C5)cc3n2)cc1 -10.4%, CCOc1ccc(N2CC(NC(=O)c3ccc(S(=O)(=O)N4CCCCC4)cc3)CC2=O)cc1 (stereo unspecified) -12.2%, CCc1cc2c(cc3c(=O)n(CC(=O)NC4CCC(C)CC4)ncn32)s1 (stereo unspecified) -9.93%, COc1cc2nc(NCc3ccc(C)cc3)n3nc(-c4ccccc4)nc3c2cc1OC 5.48%, COc1ccc(Nc2nc(N)c3cc(OC)c(OC)cc3n2)cc1 2.62%, Brc1c(NC2=NCCN2)ccc2nccnc12 -6.1%, CC1CCc2c(sc(NC(=O)C3c4ccccc4Oc4ccccc43)c2C(=O)OC(C)C)C1 (stereo unspecified) -12.1%, CCOC(=O)c1scc(-c2ccccc2)c1S(=O)(=O)Nc1cc(Cl)c(OC)cc1OC -10.7%, COc1cccc(CNC(=O)c2nn(-c3ccc(C)cc3)c(=O)c3c2c2ccccc2n3C)c1 -25.1%, COC(=O)c1ccc(CSc2nc3c([nH]c4ccccc43)c(=O)n2-c2ccc(OC)cc2)o1 -17.2%, COc1ccc(CNC(=O)c2c3c(nc4ccccc24)C(=O)N(C2CCCCC2)C3)cc1 -11.5%, COc1ccccc1CNS(=O)(=O)c1ccc2c(c1)NC(=O)CC(=O)N2 -6.57%, Cc1ccc(-n2nc(C)c3c(C(=O)NCc4ccccc4)cc(C4CC4)nc32)cc1 -14.6%, Cc1ccc(S(=O)(=O)NCc2nc(-c3cccc(C)c3)no2)cc1 -20.6%, COc1ccccc1CNC(=O)CCCn1c(=O)c2ccccc2n(CC(=O)Nc2c(C)cc(C)cc2C)c1=O -1.41%, COCCCNC(=O)c1ccc2c(c1)N(Cc1ccccc1)C(=O)c1ccccc1S2 -13.3%, O=C(CSc1nc(=O)n(CCN2CCOCC2)c2c1CCC2)Nc1ccccc1 -16.2%, CCOC(=O)c1sc(NC(=O)C2c3ccccc3Oc3ccccc32)c(C(=O)OCC)c1C -39.4%, CCOC(=O)c1cccnc1 11.7%, CCn1cc(C(=O)NCc2ccccc2Cl)c(=O)c2cc(S(=O)(=O)N3CCc4ccccc4C3)ccc21 -10.7%, COc1ccc(C(=O)Nc2nnc(S(=O)(=O)N(CC(C)C)c3ccc(C)cc3)s2)cc1OC -1.4%, CN(C)CCOC(=O)COc1ccc(Cl)cc1 8.24%, O=C(Nc1cc(C(F)(F)F)ccc1Cl)c1cc(-c2ccc3c(c2)OCCO3)on1 -6.83%, COC(=O)c1cccnc1-n1c(=O)c2cccnc2n(CC(=O)Nc2ccc(C)cc2C)c1=O -2.27%, O=C(Nc1ccc(S(=O)(=O)Nc2ncccn2)cc1)c1ccccc1Cl 3.46%, Cc1ccc2c(c1)N(C(=O)CCC(=O)NCc1ccccc1Cl)CC(C)O2 (stereo unspecified) -30.9%, CC(NC(=O)Cn1c(=O)oc2cc(S(=O)(=O)NCc3ccccc3)ccc21)c1ccccc1 (stereo unspecified) -22.8%, Cc1ccccc1Nc1nc(-c2cccc(Cl)c2)c2c(n1)-c1ccccc1OC2 -10.8%, COc1ccc(NC(=O)CSc2nnc(NC(=O)Nc3ccccc3)s2)cc1OC 25.2%, CC(=O)c1ccc(NC(=O)COc2ccccc2-c2nc(-c3cccc(C)c3)no2)cc1 1.51%, CN(C(=O)Cn1cc(S(=O)(=O)Cc2ccccc2Cl)c2ccccc21)c1ccccc1 -27.7%, Cc1ccc(Cl)cc1N1CCN(S(=O)(=O)c2ccc3c(c2)CC(C)N3C(=O)C2CCC2)CC1 (stereo unspecified) -17.8% [at 11.5 µM], CC(=O)c1ccc(NC(=O)c2sc(-n3nc(C)c(Cc4ccccc4)c3C)nc2C)cc1 2.86%, Cn1c(=O)c2c(ncn2CC(=O)Nc2cccc(Cl)c2Cl)n(C)c1=O -8.97%, Cc1ccccc1C(=O)NC1(C(F)(F)F)C(=O)Nc2c1c(=O)[nH]c(=O)n2-c1ccc(F)cc1 (stereo unspecified) -1.07%, COc1cccc(Cn2c(CNC(=O)c3cc([N+](=O)[O-])ccc3Cl)nc3cccnc32)c1 -21.9%, CCN(Cc1ccccc1)Cc1c(O)ccc2c(=O)c(-c3ccc(Cl)cc3Cl)coc12 -18.9%, Cc1noc(/C=C/c2cccs2)c1S(=O)(=O)N1CCC(C(=O)NCc2ccccc2Cl)CC1 -22.3%, CCCCNC(=O)CCCn1c(=O)c2ccccc2n(CC(=O)Nc2ccccc2OCC)c1=O -3.93%, COc1cc(/C=C(\C#N)c2nc3ccccc3[nH]2)ccc1OCc1cccc(C(F)(F)F)c1 -29%, CCOc1ccccc1NC(=O)c1ccc(F)c(S(=O)(=O)NCc2ccc3c(c2)OCO3)c1 -29.5%, CCOc1ccccc1NC(=O)N1CCc2c(sc(C)c2CC)C1c1ccccc1 (stereo unspecified) -29.6%, COc1ccc(CNc2ncnc3onc(-c4ccc(F)cc4)c23)cc1 -27.8%, O=C(Cn1c(=O)n(-c2ccc(Cl)cc2)c(=O)c2sc3ccccc3c21)NC1CCCC1 -7.83%, c1ccc(CN2CCN(c3ncnc4c3cnn4-c3ccccc3)CC2)cc1 4.1%, CCc1ccc(-n2nc(CO)c(C(=O)NCCCc3ccccc3)n2)cc1 -1.84%, Cc1ccccc1Cn1c2ccccc2c2cnn(CC(=O)NCc3ccccn3)c(=O)c21 -1.91%, CCSc1ccccc1C(=O)Nc1ccc(-c2nc3ccccc3s2)c(O)c1 29.9%, O=C(NCCc1ccccc1)C1CCC(CNS(=O)(=O)c2ccc(Cl)cc2)CC1 (stereo unspecified) 9.84%, CCOC(=O)c1cccc(NC(=O)C2Cc3ccccc3N2C(=O)c2ccccc2)c1 (stereo unspecified) -1.02%, O=C(OCc1ccccc1)c1ccccc1 25.5%, CCOc1ccc(C(=O)NC2CC(=O)N(c3ccc(C)cc3)C2)cc1OCC (stereo unspecified) -6.17%, Cc1ccc(-c2nc(NC(=O)CSc3nc(C)nc4sc5c(c34)CCCC5)ns2)cc1 -9.22%, Cc1cccc(-n2ncc3c(Nc4ccc(C)c(Cl)c4)ncnc32)c1 11.9%, COc1ccc(NC(=O)c2c(-c3ccccc3)c(-c3ccccc3)nn(C)c2=O)cc1OC -6.85%, Cc1ccc(C)c(Cn2c(=O)n(C(C)C)c(=O)c3oc4ccccc4c32)c1 4.59%, Cc1ccccc1CNC(=O)CN1C(=O)C2CCCCN2c2ccc(C(=O)N3CCCC3)cc21 (stereo unspecified) -8.44%, CCc1nn(CC(=O)N2CCCCC2)c(=O)c2cc3sc(C)cc3n12 -7.26%, Cc1ccccc1NC(=O)CCS(=O)(=O)c1cc(Br)cc2c1N(C(=O)C1CC1)CC2 -12.4%, COc1ccc(-c2cn3cccnc3n2)cc1NC(=O)Nc1ccc(Cl)cc1 36.9%
